Whole data set: some 2,900 compounds, median “IRF Lucia reporter activity, fold change vs agonist alone” near 0.9, cut for the highest 2% near 2.8. The list shows a part of the results.
Legend:
RAW-Dual [1] = experiment: IRF Lucia reporter activity, fold change vs agonist alone; cytotoxicity flag (confluency mask): not cytotoxic; higher = enhanced IRF activity
In short: (§1)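 After 50 nL of library stock was delivered by pin tool to RAW-Dual macrophages (50,000 cells/well, DMEM, 384-well plates), a PRR agonist was added 1 h later and the plates were kept at 37 °C, 5% CO2. Twenty hours later, IRF was read from supernatant by QuantiLuc luminescence and NF-κB by QuantiBlue absorbance at 620 nm. Reporter activity is stated as fold change over agonist-alone wells. Wells with IncuCyte confluency under 70% of agonist controls in both mask sets were counted as cytotoxic.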

RAW-Dual [2] = experiment: IRF Lucia reporter activity, fold change vs agonist alone; cytotoxicity flag (confluency mask): cytotoxic (confluency <70% of control); higher = enhanced IRF activity
In short: as §1

RAW-Dual [3] = experiment: IRF Lucia reporter activity, fold change vs agonist alone; higher = enhanced IRF activity; settings: agonist: MPLA (TLR4) […]
In short: as §1

[4] = agonist: 3'3'-cGAMP (STING) 10 ug/mL
[5] = library stock concentration (final ~1000-fold dilution): 10 mM, cytotoxicity flag (confluency mask): not cytotoxic
[6] = library stock concentration (final ~1000-fold dilution): 10 mM, cytotoxicity flag (confluency mask): cytotoxic (confluency <70% of control)

**Q.** CC(=N)NCc1cccc(CN)c1.Cl.Cl (library stock concentration (final ~1000-fold dilution): 10 mM) was tested. Which “IRF Lucia reporter activity” value (RAW-Dual [1]; [4]) did it give?
**A.** 0.906

**Q.** And the “IRF Lucia reporter activity” value (RAW-Dual [1]; agonist: LPS (TLR4) 0.1 ug/mL)?
**A.** 0.936

**Q.** With COc1ccc(C=Cc2cc(OC)c(OC)c(OC)c2)cc1OP(=O)(O)O (library stock concentration (final ~1000-fold dilution): 10 mM water) as the compound, how does the “IRF Lucia reporter activity” value (RAW-Dual [2]; [4]) read?
**A.** 0.0698

**Q.** What about the “IRF Lucia reporter activity” value (RAW-Dual [2]; agonist: LPS (TLR4) 0.1 ug/mL) of the same compound?
**A.** 1.96

**Q.** For COc1ccc(C=Cc2cc(OC)c(OC)c(OC)c2)cc1OP(=O)(O)O, which “IRF Lucia reporter activity” value (RAW-Dual [3]; library stock concentration (final ~1000-fold dilution): 10 mM water, cytotoxicity flag (confluency mask): cytotoxic (confluency <70% of control)) is on record?
**A.** 1.62

**Q.** For C=CC1CC1(NC(=O)C1CC2CN1C(=O)C(C(C)(C)C)NC(=O)OC1CC1CCCCCc1nc3ccc(OC)cc3nc1O2)C(=O)NS(=O)(=O)C1CC1 (stereo not drawn) (library stock concentration (final ~1000-fold dilution): 10 mM), which “IRF Lucia reporter activity” value (RAW-Dual [1]; [4]) is on record?
**A.** 1.09

**Q.** And the “IRF Lucia reporter activity” value (RAW-Dual [1]; agonist: LPS (TLR4) 0.1 ug/mL)?
**A.** 1.04

**Q.** How did the “IRF Lucia reporter activity” value (RAW-Dual [3]; [5]) turn out when C=CC1CC1(NC(=O)C1CC2CN1C(=O)C(C(C)(C)C)NC(=O)OC1CC1CCCCCc1nc3ccc(OC)cc3nc1O2)C(=O)NS(=O)(=O)C1CC1 (stereo not drawn) was run?
**A.** 1.15

**Q.** Which “IRF Lucia reporter activity” value (RAW-Dual [1]; [4]) does the source give for CCN1C(=O)CNc2ncc(-c3ccc(-c4nc[nH]n4)nc3C)nc21 (library stock concentration (final ~1000-fold dilution): 10 mM) here?
**A.** 0.131

**Q.** And the “IRF Lucia reporter activity” value (RAW-Dual [1]; agonist: LPS (TLR4) 0.1 ug/mL)?
**A.** 0.555

**Q.** How did the “IRF Lucia reporter activity” value (RAW-Dual [3]; [5]) turn out when COc1ccc(CNC(=O)CCl)cc1OC was run?
**A.** 0.949

**Q.** Which results are given for COc1ccc(CNC(=O)CCl)cc1OC (library stock concentration (final ~1000-fold dilution): 10 mM)?
**A.** IRF Lucia reporter activity (RAW-Dual [1]; [4]): 0.804; IRF Lucia reporter activity (RAW-Dual [1]; agonist: LPS (TLR4) 0.1 ug/mL): 1.06

**Q.** With COc1cc2oc(=O)ccc2c(OC)c1CC(O)C(C)(C)O (stereo not drawn) (library stock concentration (final ~1000-fold dilution): 10 mM) as the compound, how does the “IRF Lucia reporter activity” value (RAW-Dual [1]; [4]) read?
**A.** 1.14

**Q.** What about the “IRF Lucia reporter activity” value (RAW-Dual [1]; agonist: LPS (TLR4) 0.1 ug/mL) of the same compound?
**A.** 0.809

**Q.** COc1cc(NC(=O)c2ccc(-c3ccc(Cl)cc3)o2)cc(OC)c1 was tested. Which “IRF Lucia reporter activity” value (RAW-Dual [3]; [5]) did it give?
**A.** 0.886

**Q.** COc1cc(NC(=O)c2ccc(-c3ccc(Cl)cc3)o2)cc(OC)c1 (library stock concentration (final ~1000-fold dilution): 10 mM) was tested. Which “IRF Lucia reporter activity” value (RAW-Dual [1]; [4]) did it give?
**A.** 0.692

**Q.** What about the “IRF Lucia reporter activity” value (RAW-Dual [1]; agonist: LPS (TLR4) 0.1 ug/mL) of the same compound?
**A.** 1.01

**Q.** With Cl.Cl.OC(CN1CCN(c2cccc(Cl)c2)CC1)C(c1ccccc1)c1ccccc1 (stereo not drawn) (library stock concentration (final ~1000-fold dilution): 10 mM) as the compound, how does the “IRF Lucia reporter activity” value (RAW-Dual [1]; [4]) read?
**A.** 0.634

**Q.** And the “IRF Lucia reporter activity” value (RAW-Dual [1]; agonist: LPS (TLR4) 0.1 ug/mL)?
**A.** 0.943

**Q.** Cl.Cl.OC(CN1CCN(c2cccc(Cl)c2)CC1)C(c1ccccc1)c1ccccc1 (stereo not drawn) was tested. Which “IRF Lucia reporter activity” value (RAW-Dual [3]; [5]) did it give?
**A.** 0.984

**Q.** What does the source list for COc1cc2nccc(Oc3ccc(NC(=O)Nc4ccc(F)cc4F)c(F)c3)c2cc1OC (library stock concentration (final ~1000-fold dilution): 10 mM)?
**A.** IRF Lucia reporter activity (RAW-Dual [2]; [4]): 1.02; IRF Lucia reporter activity (RAW-Dual [2]; agonist: LPS (TLR4) 0.1 ug/mL): 0.826

**Q.** How did the “IRF Lucia reporter activity” value (RAW-Dual [3]; [6]) turn out when COc1cc2nccc(Oc3ccc(NC(=O)Nc4ccc(F)cc4F)c(F)c3)c2cc1OC was run?
**A.** 1.23

**Q.** What does the source list for CNC(=C[N+](=O)[O-])NCCSCc1csc(CN(C)C)n1 (library stock concentration (final ~1000-fold dilution): 10 mM)?
**A.** IRF Lucia reporter activity (RAW-Dual [1]; [4]): 1.03; IRF Lucia reporter activity (RAW-Dual [1]; agonist: LPS (TLR4) 0.1 ug/mL): 1.02

**Q.** CNC(=C[N+](=O)[O-])NCCSCc1csc(CN(C)C)n1 was tested. Which “IRF Lucia reporter activity” value (RAW-Dual [3]; [5]) did it give?
**A.** 0.93

**Q.** For Cc1cc(Nc2cc(Cl)nc(Oc3ccc([N+](=O)[O-])cc3)n2)n[nH]1 (library stock concentration (final ~1000-fold dilution): 10 mM), which “IRF Lucia reporter activity” value (RAW-Dual [1]; [4]) is on record?
**A.** 0.161

**Q.** And the “IRF Lucia reporter activity” value (RAW-Dual [1]; agonist: LPS (TLR4) 0.1 ug/mL)?
**A.** 1.38

**Q.** How did the “IRF Lucia reporter activity” value (RAW-Dual [3]; [5]) turn out when C=CC(=O)Nc1cccc(Nc2nc(Nc3ccc(NC4CN(CCF)C4)cc3OC)ncc2C(F)(F)F)c1 was run?
**A.** 0.176

**Q.** What does the source list for C=CC(=O)Nc1cccc(Nc2nc(Nc3ccc(NC4CN(CCF)C4)cc3OC)ncc2C(F)(F)F)c1 (library stock concentration (final ~1000-fold dilution): 10 mM)?
**A.** IRF Lucia reporter activity (RAW-Dual [1]; [4]): 0.0185; IRF Lucia reporter activity (RAW-Dual [1]; agonist: LPS (TLR4) 0.1 ug/mL): 0.146

**Q.** For O=C(O)CC(O)CC(O)C=Cc1c(C2CC2)nc2ccccc2c1-c1ccc(F)cc1 (stereo not drawn), which “IRF Lucia reporter activity” value (RAW-Dual [3]; [5]) is on record?
**A.** 0.442

**Q.** For O=C(O)CC(O)CC(O)C=Cc1c(C2CC2)nc2ccccc2c1-c1ccc(F)cc1 (stereo not drawn) (library stock concentration (final ~1000-fold dilution): 10 mM), which “IRF Lucia reporter activity” value (RAW-Dual [1]; [4]) is on record?
**A.** 0.387

**Q.** What about the “IRF Lucia reporter activity” value (RAW-Dual [1]; agonist: LPS (TLR4) 0.1 ug/mL) of the same compound?
**A.** 0.712

**Q.** Which “IRF Lucia reporter activity” value (RAW-Dual [1]; [4]) does the source give for CN1C2=C3N=c4ccccc4=C3CCN2C(=O)c2ccccc21 (library stock concentration (final ~1000-fold dilution): 10 mM) here?
**A.** 1.42

**Q.** And the “IRF Lucia reporter activity” value (RAW-Dual [1]; agonist: LPS (TLR4) 0.1 ug/mL)?
**A.** 1.48

**Q.** Which “IRF Lucia reporter activity” value (RAW-Dual [3]; [5]) does the source give for CN1C2=C3N=c4ccccc4=C3CCN2C(=O)c2ccccc21 here?
**A.** 1.19

**Q.** With CS(=O)(=O)Nc1ccc([N+](=O)[O-])cc1Oc1ccccc1 as the compound, how does the “IRF Lucia reporter activity” value (RAW-Dual [3]; [5]) read?
**A.** 0.957

**Q.** Which results are given for CS(=O)(=O)Nc1ccc([N+](=O)[O-])cc1Oc1ccccc1 (library stock concentration (final ~1000-fold dilution): 10 mM)?
**A.** IRF Lucia reporter activity (RAW-Dual [1]; [4]): 1.1; IRF Lucia reporter activity (RAW-Dual [1]; agonist: LPS (TLR4) 0.1 ug/mL): 0.972

**Q.** For N#CN=C(NCCCCCCOc1ccc(Cl)cc1)Nc1ccncc1 (library stock concentration (final ~1000-fold dilution): 10 mM), which “IRF Lucia reporter activity” value (RAW-Dual [1]; [4]) is on record?
**A.** 1.12

**Q.** And the “IRF Lucia reporter activity” value (RAW-Dual [1]; agonist: LPS (TLR4) 0.1 ug/mL)?
**A.** 0.935

**Q.** How did the “IRF Lucia reporter activity” value (RAW-Dual [3]; [5]) turn out when O=C(O)/C(S)=C/c1c[nH]c2ccc(F)cc12 was run?
**A.** 0.961

**Q.** With O=C(O)/C(S)=C/c1c[nH]c2ccc(F)cc12 (library stock concentration (final ~1000-fold dilution): 10 mM) as the compound, how does the “IRF Lucia reporter activity” value (RAW-Dual [1]; [4]) read?
**A.** 0.447

**Q.** What about the “IRF Lucia reporter activity” value (RAW-Dual [1]; agonist: LPS (TLR4) 0.1 ug/mL) of the same compound?
**A.** 0.99

**Q.** For Cl.Cl.Cl.Cl.Nc1cc(N)c(N)cc1N (library stock concentration (final ~1000-fold dilution): 10 mM), which “IRF Lucia reporter activity” value (RAW-Dual [2]; [4]) is on record?
**A.** 0.0145

**Q.** What about the “IRF Lucia reporter activity” value (RAW-Dual [2]; agonist: LPS (TLR4) 0.1 ug/mL) of the same compound?
**A.** 0.0149

**Q.** How did the “IRF Lucia reporter activity” value (RAW-Dual [3]; [6]) turn out when Cl.Cl.Cl.Cl.Nc1cc(N)c(N)cc1N was run?
**A.** 0.0155

**Q.** For CCNC(=O)c1noc(-c2cc(Cl)c(O)cc2O)c1-c1ccc(OC)cc1 (library stock concentration (final ~1000-fold dilution): 10 mM), which “IRF Lucia reporter activity” value (RAW-Dual [1]; [4]) is on record?
**A.** 0.782

**Q.** What about the “IRF Lucia reporter activity” value (RAW-Dual [1]; agonist: LPS (TLR4) 0.1 ug/mL) of the same compound?
**A.** 0.827

**Q.** For CCNC(=O)c1noc(-c2cc(Cl)c(O)cc2O)c1-c1ccc(OC)cc1, which “IRF Lucia reporter activity” value (RAW-Dual [3]; [5]) is on record?
**A.** 0.818

**Q.** For Cn1ncc(Cl)c1-c1cc(C(=O)NC(CN)Cc2cccc(F)c2)sc1Cl (stereo not drawn) (library stock concentration (final ~1000-fold dilution): 10 mM), which “IRF Lucia reporter activity” value (RAW-Dual [1]; [4]) is on record?
**A.** 0.627

**Q.** And the “IRF Lucia reporter activity” value (RAW-Dual [1]; agonist: LPS (TLR4) 0.1 ug/mL)?
**A.** 1.2

**Q.** For Cn1ncc(Cl)c1-c1cc(C(=O)NC(CN)Cc2cccc(F)c2)sc1Cl (stereo not drawn), which “IRF Lucia reporter activity” value (RAW-Dual [3]; [5]) is on record?
**A.** 1.46

**Q.** For CCOc1nc2cccc(C(=O)O)c2n1Cc1ccc(-c2ccccc2-c2nc(=O)o[nH]2)cc1, which “IRF Lucia reporter activity” value (RAW-Dual [3]; [5]) is on record?
**A.** 1.16

**Q.** What does the source list for CCOc1nc2cccc(C(=O)O)c2n1Cc1ccc(-c2ccccc2-c2nc(=O)o[nH]2)cc1 (library stock concentration (final ~1000-fold dilution): 10 mM)?
**A.** IRF Lucia reporter activity (RAW-Dual [1]; [4]): 1.04; IRF Lucia reporter activity (RAW-Dual [1]; agonist: LPS (TLR4) 0.1 ug/mL): 1.1
